{"source": "PubChem BioAssay AID886", "about": "(National Center for Advancing Translational Sciences (NCATS), 2007)", "note": "“And” between values parts separate entries of the source, which are not always exact repeats. Equal values may be shown once. The campaign covered roughly 73,000 compounds. About 2,500 (3.4%) were called active. The inconclusive results got no clear call from the source; some entries with a clear call stand among them for comparison. Calls come from the whole dose curve; as a rule, active = well fitted inhibition curve with a large enough effect; inconclusive = small, poorly fitted or top-dose-only effect; inactive = no such curve, though single readings can be large or run the other way. Where the call is inconclusive, the potency comes from a doubtful curve fit. % is set by controls: 0 for no effect and ±100 for the full control effect; potency is the fitted concentration of half-maximal effect; tags give direction and shape of the fitted curve."}
{"target": "3-hydroxyacyl-CoA dehydrogenase type-2 (Homo sapiens) (UniProt Q99714)", "experiment": "qHTS Assay for Inhibitors of HADH2 (Hydroxyacyl-Coenzyme A Dehydrogenase, Type II); note: nearly all actives have a fitted effect of over 60% in size", "conditions": "recombinant HADH2, NADH fluorescence, beta-hydroxybutyryl-CoA; activity change, negative = inhibition: at 57.1 µM (top of the series)", "how_it_was_run": "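His-tagged recombinant enzyme from E. coli, 20 nM, preincubated 15 min RT with compound; reaction started with 1 mM NAD+ and 90 uM beta-hydroxybutyryl-CoA in 100 mM Tris-HCl pH 9.0. NADH fluorescence (ex 360/em 450) read over 4 min; last-minus-first difference.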"}
{"smiles": "C=CCn1c(SCC(=O)c2ccc(OC)cc2)nnc1-c1cc2cccc(OC)c2o1", "Potency": "inconclusive: 7.94 µM [inhibitor, full curve]"}
{"smiles": "Cn1c(=O)oc2cc(S(=O)(=O)Nc3ccc4c(c3)OCCO4)ccc21", "activity change, negative = inhibition": "inactive: -6.19%"}
{"smiles": "O=S(=O)(/C=C/c1ccccc1)n1cnc2ccccc21", "Potency": "inconclusive: 0.126 µM [inhibitor, full curve, poor fit]"}
{"smiles": "O=C(O)c1ccc2noc(-c3ccccc3)c2c1", "Potency": "inconclusive: 15.8 µM [inhibitor, partial curve]"}
{"smiles": "Oc1ccc(N=Cc2ccc(O)c(O)c2)cc1", "Potency": "active: 3.16 µM"}
{"smiles": "CN(Cc1cnc2nc(N)nc(N)c2n1)c1ccc(C(=O)N[C@H](CCC(=O)O)C(=O)O)cc1", "Potency": "inconclusive: 31.6 µM [inhibitor, single point]"}
{"smiles": "CCc1c2c(nc3ccc(OC)cc13)OC(CC)C2", "note": "(stereo unspecified)", "activity change, negative = inhibition": "inactive: -2.29%"}
{"smiles": "CC1OC(Nc2cccc3ccccc23)C(O)C(O)C1O", "note": "(stereo unspecified)", "Potency": "active: 25.1 µM"}
{"smiles": "CN1CCN(c2ncncc2-c2ccccc2Cl)CC1", "Potency": "inconclusive: 25.1 µM [inhibitor, single point]"}
{"smiles": "Cc1nc2ccccc2n1CC(=O)NCc1ccccc1", "activity change, negative = inhibition": "inactive: 4.82%"}
{"smiles": "O=C(OCCN(C1=NS(=O)(=O)c2ccccc21)c1ccc(Cl)cc1)c1ccco1", "Potency": "inconclusive: 39.8 µM [inhibitor, single point]"}
{"smiles": "CCOC(=O)CSCC(=O)Nc1cc(C)ccc1C", "Potency": "inconclusive: 25.1 µM [inhibitor, partial curve]"}
{"smiles": "CCCCc1cc(=O)oc2cc(C)c(CN3CCCC3)c(O)c12", "Potency": "active: 25.1 µM"}
{"smiles": "CCCc1cc2c(n1Cc1ccc(OC)cc1)C(C)C1CN(C(=O)c3ccccc3)C(C)(C(=O)OC)C21", "note": "(stereo unspecified)", "activity change, negative = inhibition": "inactive: -5.02%"}
{"smiles": "COc1ccc(COC(=O)N/N=C2/C[C@@H](O)[C@@H](O)[C@@H]3[C@@H]4C(=O)N(C[C@@H]5CCCO5)C(=O)[C@H]4CC[C@@H]23)cc1", "activity change, negative = inhibition": "inactive: 0.805% [at 11.4 µM]"}
{"smiles": "O=c1oc2ccccc2c(O)c1CN1CCCCC1", "activity change, negative = inhibition": "inactive: 0.823%"}
{"smiles": "CN(C)Cc1ccc(C(C)(C)C)cc1-c1cc(C(C)(C)C)ccc1CN(C)C", "activity change, negative = inhibition": "inactive: 1.12% [at 11.4 µM]"}
{"smiles": "CCOC(=O)c1sc(NC(=O)c2cccs2)cc1C", "Potency": "active: 31.6 µM"}
{"smiles": "O=c1[nH]c2cc3c(cc2cc1CN(Cc1cccs1)Cc1nnnn1Cc1ccco1)OCCO3", "Potency": "inconclusive: 31.6 µM [inhibitor, single point]"}
{"smiles": "CCOC(=O)C1CCCN(S(=O)(=O)Cc2ccccc2)C1", "note": "(stereo unspecified)", "Potency": "inconclusive: 25.1 µM [inhibitor, single point]"}
{"smiles": "CCOc1ccc2c(c1)N(C(=O)CN1C(=O)CCC1=O)C(C)(C)C=C2C", "activity change, negative = inhibition": "inactive: 1.07%"}
{"smiles": "COc1ccc([C@@H]2CC(=O)c3c(O)cc(O)cc3O2)cc1O", "Potency": "inconclusive: 12.6 µM [inhibitor, partial curve] and inconclusive: 15.8 µM [inhibitor, partial curve]"}
{"smiles": "CNC(=O)c1cc2c(=O)n3cccc(C)c3nc2n(C(C)C)c1=N", "Potency": "active: 3.98 µM"}
{"smiles": "Cc1noc(C)c1-c1ccc2ncnc(NC3CC3)c2c1", "Potency": "inconclusive: 31.6 µM [inhibitor, single point]"}
{"smiles": "Cc1cc2c(c(=O)n1C)C(Cc1ccccc1)C(C#N)=C(N)O2", "note": "(stereo unspecified)", "Potency": "inconclusive: 31.6 µM [inhibitor, single point]"}
{"smiles": "CCc1cc2c(=O)c(-c3nc4ccccc4n3C)c(C)oc2c(CN2CCN(CCO)CC2)c1O", "Potency": "inconclusive: 31.6 µM [inhibitor, single point]"}
{"smiles": "N#CCc1c(C#N)c(N)nc(N2CCN(S(=O)(=O)c3ccccc3)CC2)c1C#N", "Potency": "active: 31.6 µM"}
{"smiles": "CC=C(/C(=C/C)c1ccc(O)cc1)c1ccc(O)cc1", "Potency": "inconclusive: 15.8 µM [inhibitor, single point]"}
{"smiles": "CCOC(=O)C1CCCN(C(=O)c2cnn3c(C(F)(F)F)cc(-c4ccccc4)nc23)C1", "note": "(stereo unspecified)", "activity change, negative = inhibition": "inactive: 7.03%"}
{"smiles": "COc1ccc(C/C(N)=N/n2cnnc2)cc1Cl", "Potency": "inconclusive: 7.94 µM [inhibitor, single point]"}
{"smiles": "Cc1ccc(/C(C#N)=C/c2cccc([N+](=O)[O-])c2)cc1", "activity change, negative = inhibition": "inactive: 16.3% [at 11.4 µM]"}
{"smiles": "CC(C)(C)c1cc(C(=O)O)c(CN2CCCCC2)o1", "Potency": "inconclusive: 6.31 µM [inhibitor, single point]"}
{"smiles": "CCCCNC(=O)c1ccc2nc(-c3ccco3)c(-c3ccco3)nc2c1", "Potency": "active: 6.31 µM"}
{"smiles": "O=c1cc(O)cc(/C=C\\c2ccc(O)c(O)c2)o1", "Potency": "active: 0.251 µM"}
{"smiles": "O=C(CCCn1c(=S)[nH]c2cc3c(cc2c1=O)OCO3)NC1CC1", "Potency": "inconclusive: 25.1 µM [inhibitor, partial curve]"}
{"smiles": "O=C(CSc1nnc(Cc2ccccc2)o1)N1CCCc2ccccc21", "Potency": "inconclusive: 25.1 µM [inhibitor, partial curve]"}
{"smiles": "Cc1nc2cc(C(F)(F)F)ccc2n1C1CCN(CC(=O)NC(C)(C)C)CC1", "activity change, negative = inhibition": "inactive: 15.3%"}
{"smiles": "OCc1ccncc1.OCc1ccncc1.[Cl][Pt]([Cl])([Cl])[Cl]", "Potency": "inconclusive: 0.251 µM [inhibitor, full curve]"}
{"smiles": "CC(=O)C1=C(C)NC(SCC(=O)c2ccc(Cl)cc2)=C(C#N)C1c1ccco1", "note": "(stereo unspecified)", "Potency": "inconclusive: 12.6 µM [inhibitor, partial curve]"}
{"smiles": "O=C(O)C1C2C=CC(C2)C1C(=O)NC1CCS(=O)(=O)C1", "note": "(stereo unspecified)", "Potency": "inconclusive: 2.51 µM [inhibitor, partial curve]"}
{"smiles": "Oc1cc(O)c2c(c1)O[C@H](c1ccc(O)c(O)c1)[C@@H](O)C2", "Potency": "inconclusive: 39.8 µM [inhibitor, single point]"}
{"smiles": "Cc1ccccc1OCC(O)Cn1c(SC(C)C)nc2c1c(=O)[nH]c(=O)n2C", "note": "(stereo unspecified)", "Potency": "inconclusive: 3.16 µM [inhibitor, full curve]"}
{"smiles": "Cn1c(=O)c2[nH]c(SCCN3CCOCC3)nc2n(C)c1=S", "Potency": "inconclusive: 3.98 µM [inhibitor, single point]"}
{"smiles": "O=C(Nc1nc(-c2ccncc2)cs1)c1ccco1", "Potency": "inconclusive: 25.1 µM [inhibitor, single point]"}
{"smiles": "CN(C)c1ccc(C2(c3ccc(N(C)C)cc3)OC(=O)c3cc(N(C)C)ccc32)cc1", "Potency": "active: 7.94 µM"}
{"smiles": "C[N+]1(C)CCC(OC(=O)C(c2ccccc2)c2ccccc2)CC1", "Potency": "inconclusive: 7.94 µM [inhibitor, single point]"}
{"smiles": "COCCc1ccc(OC[C@H](O)CNC(C)C)cc1", "Potency": "inactive"}
{"smiles": "COc1ccc(C2C(C(=O)Nc3cccnc3)=C(C)Nc3nc(-c4ccco4)nn32)cc1", "note": "(stereo unspecified)", "Potency": "inconclusive: 5.01 µM [inhibitor, single point]"}
{"smiles": "CCCCc1c(O)nc(SCC(=O)Nc2ccc3c(c2)CCC3)[nH]c1=O", "Potency": "inconclusive: 25.1 µM [inhibitor, single point]"}
{"smiles": "Cc1cccc2[nH]c(-c3ccc(NC(=O)c4ccco4)cc3)nc12", "Potency": "inconclusive: 31.6 µM [inhibitor, single point]"}
{"smiles": "CN(C)C=Nc1ncc2c([nH]c3ccccc32)c1C#N", "Potency": "inconclusive: 39.8 µM [inhibitor, single point]"}
{"smiles": "Cn1c(=O)[nH]c(=O)c2c1nc(NCCCn1ccnc1)n2Cc1ccc(F)cc1", "activity change, negative = inhibition": "inactive: 0.516%"}
{"smiles": "COC(=O)CN(c1ccccn1)S(=O)(=O)c1ccccc1", "Potency": "inconclusive: 25.1 µM [inhibitor, single point]"}
{"smiles": "COc1cc2c(C#N)c(N3CCN(c4ccccc4OC)CC3)nc(N)c2c(N)n1", "Potency": "inconclusive: 39.8 µM [inhibitor, single point]"}
{"smiles": "CSC1=NCCN1C(=O)c1ccc(S(=O)(=O)N(C)C)cc1", "activity change, negative = inhibition": "inactive: 11%"}
{"smiles": "COc1ccc(Oc2cn[nH]c2-c2ccc(O)cc2O)cc1", "Potency": "inconclusive: 39.8 µM [inhibitor, single point]"}
{"smiles": "CCN(CC)CCOC(=O)C1(C2CCCCC2)CCCCC1", "Potency": "inconclusive: 25.1 µM [inhibitor, single point]"}
{"smiles": "Cn1c(=O)c(C#N)c(-c2ccccc2)n2cnnc12", "Potency": "inconclusive: 12.6 µM [inhibitor, partial curve, poor fit]"}
{"smiles": "c1ncc(-c2ccoc2)c(NC2CC2)n1", "Potency": "active: 10 µM"}
{"smiles": "CCOc1ccc(-c2nn3c(-c4ccc(F)cc4)nnc3s2)cc1", "Potency": "inconclusive: 39.8 µM [inhibitor, single point]"}
{"smiles": "O[C@H](CNc1ccccn1)c1ccccc1", "activity change, negative = inhibition": "inactive: 11.8% [at 11.4 µM]"}
{"smiles": "O=C(CC(C(=O)N1CCc2ccccc21)n1ccnc1)NCc1cccnc1", "note": "(stereo unspecified)", "Potency": "inconclusive: 0.0251 µM [inhibitor, partial curve, poor fit]"}
{"smiles": "COc1ccc(-n2nc(C(=O)NCc3ccco3)c3c4ccccc4n(C)c3c2=O)cc1", "Potency": "inconclusive: 39.8 µM [inhibitor, single point]"}
{"smiles": "COc1ccccc1OCC(=O)NCCNC(=O)COc1ccccc1OC", "Potency": "inconclusive: 31.6 µM [inhibitor, single point]"}
{"smiles": "COc1ccc2[nH]c(=O)c3c(c2c1)OC(C)(C)C=C3", "Potency": "inactive"}
{"smiles": "CN(C)c1ccc(C(=O)Nc2nc3c(s2)CCCC3)cc1", "Potency": "active: 25.1 µM"}
{"smiles": "COc1ccc(-c2c(NC(C)=O)n(C)c3ccccc3c2=O)cc1", "Potency": "inconclusive: 3.16 µM [inhibitor, full curve]"}
{"smiles": "CCNc1ncc2nc(CCc3ccccc3)c(=O)n(CCC#N)c2n1", "Potency": "inconclusive: 6.31 µM [inhibitor, single point]"}
{"smiles": "Cn1c(=O)c(-c2ccc(Cl)cc2)nc2cnc(Oc3ccccc3)nc21", "activity change, negative = inhibition": "inactive: -4.32%"}
{"smiles": "O=C(O)c1ccccc1C1=Nc2ccc(O)cc2Oc2cc(O)ccc21", "Potency": "inconclusive: 10 µM [inhibitor, partial curve]"}
{"smiles": "CCOC(=O)N1CCN(C(=O)c2ccc3nc4ccsc4c(=O)n3c2)CC1", "Potency": "inconclusive: 31.6 µM [inhibitor, single point]"}
